Laboratory results reported in article PMC9489631 (Journal of molecular biology, 2022).

Target: the molecule itself
Experiment: SEC-MALS

B1: folded core region of TAF-Iβ (cTAF-Iβ), […] (domain or fragment)
chain: not shown
stoichiometry N: 2
